Measurements published in paper PMC4336329 (PLoS ONE, 2015).
Screen size: about 310,000 compounds; about 14,000 (4.5%) showed an effect of 50% or more. The effect is printed as a negative number. Some of the results follow.

target: human ether-à-go-go-related gene (hERG) potassium channel (human, UniProt Q12809); experiment: primary screen, population patch clamp on CHO cells stably expressing hERG
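Note: peak tail current of the secondary pulse compared with the same well before compound.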

Chain of human ether-à-go-go-related gene (hERG) potassium channel (Q12809 whole entry, looked up): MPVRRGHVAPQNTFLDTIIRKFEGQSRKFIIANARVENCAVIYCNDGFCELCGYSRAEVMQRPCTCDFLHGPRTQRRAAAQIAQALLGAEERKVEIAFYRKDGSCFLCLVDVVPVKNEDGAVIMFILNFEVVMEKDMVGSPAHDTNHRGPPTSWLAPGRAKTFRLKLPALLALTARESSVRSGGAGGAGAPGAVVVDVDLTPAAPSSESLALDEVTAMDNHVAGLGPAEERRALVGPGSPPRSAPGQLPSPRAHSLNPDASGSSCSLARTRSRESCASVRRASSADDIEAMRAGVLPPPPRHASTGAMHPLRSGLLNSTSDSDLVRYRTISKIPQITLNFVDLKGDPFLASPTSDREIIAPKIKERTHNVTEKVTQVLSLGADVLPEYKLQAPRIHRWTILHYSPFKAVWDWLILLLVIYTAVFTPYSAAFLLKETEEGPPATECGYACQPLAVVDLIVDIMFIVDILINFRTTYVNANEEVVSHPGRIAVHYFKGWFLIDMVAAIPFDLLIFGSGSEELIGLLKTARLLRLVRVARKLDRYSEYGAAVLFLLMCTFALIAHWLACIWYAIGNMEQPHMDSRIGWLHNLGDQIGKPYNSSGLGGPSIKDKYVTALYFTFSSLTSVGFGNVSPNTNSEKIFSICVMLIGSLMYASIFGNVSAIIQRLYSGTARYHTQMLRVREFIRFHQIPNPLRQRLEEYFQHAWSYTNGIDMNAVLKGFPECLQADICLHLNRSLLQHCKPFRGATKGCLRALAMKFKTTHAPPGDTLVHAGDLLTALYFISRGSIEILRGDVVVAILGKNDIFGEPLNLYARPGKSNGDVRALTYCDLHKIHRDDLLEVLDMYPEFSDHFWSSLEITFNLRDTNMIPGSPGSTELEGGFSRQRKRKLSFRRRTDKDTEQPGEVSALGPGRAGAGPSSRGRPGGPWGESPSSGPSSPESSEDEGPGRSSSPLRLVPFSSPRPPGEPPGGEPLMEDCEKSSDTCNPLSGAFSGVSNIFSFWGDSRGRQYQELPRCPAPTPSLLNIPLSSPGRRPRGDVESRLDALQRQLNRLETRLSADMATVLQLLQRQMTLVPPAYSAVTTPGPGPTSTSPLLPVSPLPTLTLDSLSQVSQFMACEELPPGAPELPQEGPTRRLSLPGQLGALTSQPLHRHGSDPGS

In order of rising “hERG current change (%, negative = inhibition) at 10uM” value:
1. O=C(NCCCn1ccnc1)/C(=C\c1ccc(Br)cc1)NC(=O)c1ccccc1  -75.8%
2. CCOc1ccc(C(=O)OCc2nnc(-c3cccs3)o2)cc1OC  -54.9%
3. COc1cc(N/C(N)=N/c2nc(C)cc(C)n2)cc(OC)c1  -49.8%
4. COc1cccc(NC(=O)CCS(=O)(=O)c2cc3c(cc2Cl)NC(=O)CO3)c1  -30.9%
5. CCCCSc1nnc(CNC(=O)C23CC4CC(CC(C4)C2)C3)n1Cc1ccccc1  -29.7%
6. COc1ccc(NC(=O)Cc2nc3ccccc3[nH]2)cc1  -25.5%
7. Cl.O=C(NCCN1CCCC1)C(c1ccccc1)c1ccccc1  -23.4%
8. COc1ccc(OC)c(NC2c3ccccc3C(=O)N2Cc2ccc3c(c2)OCO3)c1 (stereo not drawn)  -19.4%
9. O=S(=O)(NCCNS(=O)(=O)c1ccc(F)cc1)c1ccc(F)cc1  -18%
10. COc1ccccc1N1CC(C(=O)OCc2nc(N)nc(Nc3ccccc3)n2)CC1=O (stereo not drawn)  -15.8%
11. CCOC(=O)C1=C(N)OC2=C(C(=O)CC(C)(C)C2)C1c1ccco1 (stereo not drawn)  -14.3%
12. Cc1ccc(N2C(=O)NC(NC(=O)C3CC3)(C(F)(F)F)C2=O)cc1 (stereo not drawn)  -13.5%
13. c1ccc(Cn2nnnc2CN2CCN(c3ncccn3)CC2)cc1  -12.9%
14. CC(C)c1ccc(C2C(C#N)=C(N)Oc3c2oc(CO)cc3=O)cc1 (stereo not drawn)  -10.2%
15. Cc1cc(C)c(CSc2ncc(-c3ccc([N+](=O)[O-])cc3)[nH]2)c(C)c1  -10.2%
16. O=S(=O)(/N=C(\c1ccccc1F)N1CCCCC1)c1ccccc1  -8.95%
17. S=C1NC[C@H](CC2CCCCC2)N1CC1CCCCC1  -8.59%
18. CCCCn1c(N)c(N(CCC(C)C)C(=O)c2cccc(-n3cnnn3)c2)c(=O)[nH]c1=O  -7.92%
19. CC1(C)CC(NS(=O)(=O)c2ccc(C(C)(C)C)cc2)CC(C)(C)N1  -6.24%
20. CCCNC(=O)c1cc(S(=O)(=O)N2CCc3ccccc32)ccc1F  -6.05%
21. CSc1nc(-c2ccccc2)c(C#N)c(=O)[nH]1  -5.88%
22. Cc1cc(=O)c2n(Cc3ccc(Cl)cc3)nc[n+]2[nH]1.[Cl-]  -5.12%
23. Cl.O=C(CN1CCN(c2cccc(C(F)(F)F)c2)CC1)Nc1cccc(C(F)(F)F)c1  -1.14%
24. O=C(CC1C(=O)NCCN1Cc1cccc(F)c1)NCCCN1CCCC1=O (stereo not drawn)  -0.642%
25. COc1ccccc1N1CCN(C(=O)c2cn(C)c3ccc(S(=O)(=O)N4CCOCC4)cc3c2=O)CC1  0.635%
26. O=C1C2C(C(=O)N1c1ccncc1)C1C=CC2C12CC2 (stereo not drawn)  0.773%
27. Cc1ccc(NC(=O)CNCc2ccccc2)c(Br)c1  0.831%
28. CCCc1nc2ccccc2c(C(=O)OC(C)C(=O)NCc2ccc3c(c2)OCO3)c1CC (stereo not drawn)  1.12%
29. CN1CCCN(C(=O)c2ccc(Br)cc2)CC1  1.16%
30. CN1CCN(CC(=O)NC(=O)NC2CCCCC2)CC1  3.76%
31. CCOC(=O)c1cc2ccc(OC)c(OC)c2c(=O)s1  4.59%
32. CC(C)(C)NC(=O)C1CC(=O)OC12CCCCC2 (stereo not drawn)  4.77%
33. COc1ccccc1Nc1nnc(C)c(=O)[nH]1  4.89%
34. Nc1cc(Cl)nc(N/N=C/c2ccccc2[N+](=O)[O-])n1  5.06%
35. CCc1cc2c(=O)c(-c3cnn(-c4ccccc4)c3)c(C)oc2cc1OCC(=O)Nc1cccc(C)c1  5.08%
36. O=C(N/N=C/c1c(Cl)nc2ccccn2c1=O)c1cccnc1  5.54%
37. COC(=O)n1c(=O)oc2ccc(S(=O)(=O)N3CCCCC3)cc21  5.68%
38. Cc1cc(NC(=O)CSc2ccc(F)cc2)no1  6.82%
39. COc1ccc(N2CCN(C(=O)c3cccs3)CC2)cc1  7.37%
40. O=C(NCc1cccs1)C1CCCN1C(=O)Nc1ccc(F)cc1 (stereo not drawn)  7.93%
41. Cc1ccc(C(=O)NCC(=O)OCC(=O)c2c(N)n(C)c(=O)n(C)c2=O)s1  9.14%
42. CC(NS(=O)(=O)c1ccc(Br)cc1)C(N)=O (stereo not drawn)  9.92%
43. COc1ccc2c(CN3CC=C(c4ccccc4)CC3)cc(=O)oc2c1  10.8%
44. Cc1ccc(S(=O)(=O)N2CCCC2C(=O)NC2=NCCS2)cc1 (stereo not drawn)  11.4%
45. CC(=O)Nc1cccc(NC(=O)Cc2nc(-c3ccccc3)sc2-c2ccc(C)cc2)c1  13.1%
46. COc1ccc(OC)c(S(=O)(=O)N/N=C(/C)c2c[nH]c3ccccc23)c1  14.1%
47. CCC(=O)Nc1cccc(NC(=O)CSc2nnc(-c3ccc(NS(C)(=O)=O)cc3)n2CC)c1  14.4%
48. Cc1ccc(C(O)c2nccn2C)o1 (stereo not drawn)  15.4%
49. N#C/C(=C(\O)Cc1ccccc1)c1nc2ccccc2[nH]1  15.6%
50. COc1ccc(CN2CCSCC2)c(C)c1C  17.6%
51. COc1ccc(C2(C)NC(=O)N(CC(=O)Nc3ccc(Br)cc3F)C2=O)cc1OC (stereo not drawn)  17.8%
52. Cc1cc(-n2c(SCC(=O)Nc3ccc(Br)cc3)nc3n[nH]c(C)c3c2=N)ccc1Cl  19.7%
53. N#Cc1nc(-c2ccccc2F)oc1NCCc1ccccc1  20.2%
54. CCO[C@@H]1OC(C(=O)O)=C[C@H](c2ccc(Br)cc2)[C@H]1CCCO  20.6%
55. N#CC(C#N)=Cc1cc2ccccc2nc1N1CCOCC1  20.9%
56. Cn1c(SCC(=O)NNC(=O)c2ccc(Br)cc2)nnc1-c1cccnc1  25.6%
57. Fc1ccc(-n2c(Cn3nnc4ccccc43)n[nH]c2=S)cc1  41.2%
